Reference: PubChem BioAssay AID588342 (National Center for Advancing Translational Sciences (NCATS), 2011)
Where “and” joins values, the source holds several entries; their conditions need not be identical. Equal values may be shown once. The campaign covered roughly 360,000 compounds. About 25,000 (6.9%) were called active. The inconclusive results got no clear call from the source; some entries with a clear call stand among them for comparison. Calls follow the shape of the dose curve; as a rule, active = well fitted inhibition curve with a large enough effect; inconclusive = small, poorly fitted or top-dose-only effect; inactive = flat fitted curve, though single readings scatter. Potencies of inconclusive entries are doubtful fits and often do not repeat.

What follows are compounds tested against Luciferin 4-monooxygenase (Photinus pyralis) (UniProt P08659) (assay: qHTS profiling assay for firefly luciferase inhibitor/activator using purifed enzyme and Km concentrations of substrates (counterscreen for miR-21 project)). Settings: purified FLuc, luminescence inhibition; activity change, negative = inhibition: at 57.5 µM (top of the series).
Sequence of UniProt P08659 (P08659 whole entry, looked up): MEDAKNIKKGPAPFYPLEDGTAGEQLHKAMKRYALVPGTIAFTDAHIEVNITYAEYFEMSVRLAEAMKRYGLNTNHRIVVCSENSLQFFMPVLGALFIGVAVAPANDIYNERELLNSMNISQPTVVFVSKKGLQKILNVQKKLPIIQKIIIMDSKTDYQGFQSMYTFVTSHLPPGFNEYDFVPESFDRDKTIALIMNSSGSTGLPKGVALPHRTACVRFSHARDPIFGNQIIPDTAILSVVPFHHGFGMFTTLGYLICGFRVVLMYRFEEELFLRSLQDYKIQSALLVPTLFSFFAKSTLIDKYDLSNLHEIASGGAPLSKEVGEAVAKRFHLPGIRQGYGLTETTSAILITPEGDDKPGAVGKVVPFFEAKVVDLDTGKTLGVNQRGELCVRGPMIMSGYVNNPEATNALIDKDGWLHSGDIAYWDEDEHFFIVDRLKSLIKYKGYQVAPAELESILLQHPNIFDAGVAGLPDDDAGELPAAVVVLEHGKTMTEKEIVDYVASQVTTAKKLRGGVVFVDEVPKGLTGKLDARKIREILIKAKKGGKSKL
In short: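 Purified P. pyralis luciferase, 10 nM final, with Km-level 10 uM D-luciferin and 10 uM ATP in 50 mM Tris acetate pH 7.5, 10 mM Mg acetate, 0.01% Tween-20, 0.05% BSA; 6-point qHTS titration about 60 µM downward; luminescence read.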
Also: nearly all actives have a fitted effect of over 55% in size.
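For activity change, negative = inhibition in this document: plate controls were vehicle for no effect and reference inhibitor for full effect.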
Potency is read from the fitted curve at half-maximal effect; tags tell the direction and shape of the fitted curve.

Compound	Potency	activity change, negative = inhibition
COC(=O)C1=C(C)Nc2ccc(C)cc2S1	inconclusive: 21.3 µM [inhibitor, single point]	–
CCCN(CC1CC1)c1nc(N)c2c(N)nc(OC)cc2c1C#N	inconclusive: 23.9 µM [inhibitor, partial curve, poor fit]	–
COc1ccc(-c2cc3nc(C)c(CCC(=O)NC(C)CCc4ccco4)c(C)n3n2)c(OC)c1 (stereo not drawn)	–	inactive: 1.35%
O=C(CSc1n[nH]c(-c2ccncc2)n1)Nc1ccccc1Cl	–	inactive: 1.27%
O=C(COC(=O)/C=C/c1ccc([N+](=O)[O-])cc1)NC(c1ccccc1)c1ccccc1	–	inactive: -1.73%
Nc1ccc(C(=O)Nc2ccc3nc(-c4cccnc4)[nH]c3c2)cc1	active: 16.9 µM	–
O=C(O)c1ccc(COc2ccc(Cl)cc2)o1	active: 26.9 µM	–
CCOc1ccc(NC(=O)Cn2c(=O)oc3cc(S(=O)(=O)N4CCC(C)CC4)ccc32)cc1	inconclusive: 9.53 µM [inhibitor, partial curve, poor fit]	–
COC(=O)c1cccn(CC(=O)c2ccc(Cl)cc2)c1=O	inconclusive: 37.9 µM [inhibitor, single point]	–
COC(=O)c1sc(NC(=O)/C=C/c2ccc(C)o2)nc1C	inconclusive: 2.13 µM [inhibitor, full curve]	–
O=C(Cn1nc(-c2ccc3c(c2)OCCO3)ccc1=O)Nc1cccc(NC(=O)c2ccccn2)c1	–	inactive: -4.68%
CC1CCCCC1NC(=O)c1cc2ccccc2o1 (stereo not drawn)	inconclusive: 23.9 µM [inhibitor, partial curve, poor fit]	–
COc1ccc(OC)c(CCNC(=O)c2cc3c(=O)n(C)c4ccccc4c3n2C)c1	–	inactive: 2.64%
O=C(c1ccccc1)N1CCN(Cc2ccc3c(c2)OCO3)CC1	–	inactive: -0.947%
CCOC(=O)c1nn(-c2ccccc2F)c(-c2ccccc2)c1C(=O)c1ccccc1	–	inactive: 0.532%
O=C(CSc1nnc2c(n1)[nH]c1ccccc12)Nc1cccc(S(=O)(=O)N2CCOCC2)c1	inconclusive: 7.57 µM [inhibitor, partial curve, poor fit]	–
N#C[C@H]1[C@H](c2ccccc2)[C@](C#N)(C(=O)c2ccccc2)[C@@H]2C=Cc3ccccc3N21	inconclusive: 19 µM [inhibitor, partial curve]	–
O=C(Nc1ccc2[nH]c(=O)[nH]c2c1)c1ccc([N+](=O)[O-])o1	–	inactive: -5.25%
Cc1nn(C)cc1/C=C/C(=O)c1ccc(O)cc1	active: 13.5 µM	–
COC(=O)Nc1nnc(SCc2ccc(C)cc2)s1	inconclusive: 23.9 µM [inhibitor, partial curve, poor fit]	–
COc1cc(NC(=O)c2ncn(-c3ccccc3)n2)cc(OC)c1	inconclusive: 23.9 µM [inhibitor, single point]	–
CC(=O)OCc1cc(-c2nc3ccccc3[nH]c2=O)nn1-c1ccc(Cl)cc1	–	inactive: 2.19%

Compound	Potency	activity change, negative = inhibition
COc1c(C(=O)NCCSC(C)(C)C)ccc2ccccc12	inconclusive: 8.49 µM [inhibitor, single point]	–
COc1ccc(NC(=O)c2c(C)oc3ccc(O)c(CN4CCOCC4)c23)cc1	–	inactive: 2.56%
COc1ccc(-n2nnnc2-c2ccc(S(C)(=O)=O)cc2Cl)cc1	–	inactive: 1.09%
CCN(CC(=O)Nc1ccc(NC(C)=O)cc1)C(=O)/C=C/c1cn(Cc2ccccc2)nc1-c1cccnc1	inconclusive: 26.9 µM [inhibitor, single point]	–
O=C(CSc1nc2ccccc2o1)Nc1nc2ccccc2s1	inconclusive: 37.9 µM [inhibitor, partial curve, poor fit]	–
C(=C\c1ccccn1)/c1ccccn1	inconclusive: 21.3 µM [inhibitor, partial curve]	–
CC1CC(C)CN(C(=S)Nc2ccc(SC(F)F)cc2)C1 (stereo not drawn)	inconclusive: 23.9 µM [inhibitor, single point]	–
O=C(COc1ccc(Cl)cc1Cl)N1CCCCCC1	inconclusive: 37.9 µM [inhibitor, partial curve, poor fit]	–
CCn1c(C)nnc1SCC(=O)Nc1ccc2c(c1)OCCO2	inconclusive: 26.9 µM [inhibitor, single point]	–
COc1ccc(S(=O)(=O)N2CCN(C(=O)c3cc(-c4ccc(C)cc4)n[nH]3)CC2)cc1	inconclusive: 21.3 µM [inhibitor, partial curve, poor fit]	–
O=C(N/N=C/c1ccc2c(c1)OCO2)C(=O)Nc1ccccc1Cl	–	inactive: -1.34%
COc1ccc(OC)c(NS(=O)(=O)c2ccc(Br)s2)c1	inconclusive: 26.9 µM [inhibitor, single point] and inconclusive: 26.9 µM [inhibitor, partial curve, poor fit]	–
COc1ccc(OC)c(S(=O)(=O)Nc2cccc(F)c2)c1	–	inactive: -0.826%
O=S(=O)(c1cccc(-c2cn3ccccc3n2)c1)N1CCCC1	inconclusive: 19 µM [inhibitor, partial curve, poor fit]	–
COc1ccc2oc(C(=O)OCC(=O)N3CCN(S(=O)(=O)c4ccc(C)cc4)CC3)c(C)c2c1	–	inactive: -5.88%
COc1ccc(C(=O)Oc2ccc(C(c3c(C)[nH][nH]c3=O)c3c(C)[nH][nH]c3=O)cc2OC)cc1	inconclusive: 15.1 µM [inhibitor, partial curve]	–
O=C(CSc1ccc(F)cc1)NC1CCCCC1	inconclusive: 37.9 µM [inhibitor, partial curve, poor fit]	–
COC(=O)c1ccc(NC(=O)Nc2ccc(OC)c(OC)c2)cc1	inconclusive: 37.9 µM [inhibitor, single point]	–
COCCNc1nc(-c2cc(C)c(C)cc2C)cs1	inconclusive: 30.1 µM [inhibitor, partial curve, poor fit]	–
CCOc1ccc(CCNC(=O)c2ccc(CS(=O)Cc3ccc(Cl)cc3)o2)cc1 (stereo not drawn)	inconclusive: 30.1 µM [inhibitor, partial curve, poor fit] and inconclusive: 37.9 µM [inhibitor, single point]	–
Cc1cc(C(=O)NNC(=S)NC(C)c2ccccc2)c2ccccc2n1 (stereo not drawn)	inconclusive: 23.9 µM [inhibitor, partial curve, poor fit]	–
